Source: the supplement of paper PMC11417369
± gives the standard deviation of the averaged measurements. This is one part of the list.

Each sequence was assayed on PfAP2-G AP2 domain (GST-tagged) (assay: gcPBM binding intensity (ln(normalized median fluorescence intensity)); higher = stronger DNA binding).
Outline: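 Each value is the highest Masliner-normalised natural-log median intensity across replicate spots of either orientation of a probe. The probes were primer-extended double-stranded 36-bp intergenic genomic sequences on an Agilent 4 × 180k array, alongside negative controls, exposed for 1 h to GST-tagged P. falciparum DNA-binding domains expressed in E. coli. Bound protein was picked up with Alexa488 anti-GST antibody and scanned at 488 nm.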

Row | Sequence | gcPBM binding intensity (ln)
1 | ATATTTAAATGGATCACACATATATATATATATATA [CACACA_site5255] | 10.2 ± 0.57
2 | TTAAAAAATAACAAGGTGCAAATAGGTTTATAAAAT | 10.2 ± 0.11
3 | ACTTACACATTTATTACACACATAAAGGAAAATTTT [CACACA_site1356] | 10.3 ± 0.27
4 | CACTAATAGTGGATTACACACATATATATGTATATA [CACACA_site2531] | 10.23 ± 0.014
5 | CGCGAAGTAGCATTCACACACAGCAAAATATATATA [CACACA_site3495] | 9.995 ± 0.035
6 | TTTTTATTTTTATACATATAATATATTATGATTAAA [CACACA_negctrl_site214] | 9.94 ± 0.24
7 | ACAGCATAATCATGCTGTACATTATTTTCTTAAGTA [XGTACX_site8456] | 10.9 ± 0.6
8 | AGAGACTTAGAAAACACACATACATAAGATAATTTA [CACACA_site2377] | 10.1 ± 0.24
9 | TTTTTAACATTTAAATGTACATGTTACAATTTAAAG [XGTACX_site8789] | 11.1 ± 0.73
10 | TACTAAAACCCATACACACACATATATATAGTACCA [CACACA_site3184] | 10.7 ± 0.5
11 | TAAAATAAAAGTGAAACACACAGTATTTTACAACAT [CACACA_site3811] | 9.74 ± 0.071
12 | AAAATAGCTGTATAGAGTACATATAAATAATGTTGT [XGTACX_site5692] | 11.2 ± 0.72
13 | TGCAAAAAATTCCACACACACACACGCATATAAATA [CACACA_site6696] | 10.2 ± 0.3
14 | ATAACAATTATTTGTCGACACACGTATATGTTATTT [CACACA_site1766] | 10.17 ± 0.099
15 | CAAGCTTTTTCCTTTACACACATTAATTATATATAT [CACACA_site1423] | 10.04 ± 0.021
16 | TTTTGAAGAAAATTCTTTTTTTTTTTTTTTTGTAAA [CACACA_negctrl_site102] | 9.45 ± 0.16
17 | ATATAATGACAAGTATAAGTATCACAAAGAAATAAA [CACACA_negctrl_site1403] | 10.3 ± 0.14
18 | CCACTTTTTGAAGACACACACAAAAAAAAAAAAAAA [CACACA_site2551] | 10.3 ± 0.64
19 | TCATATAATATTTATATGCACACTTTTCTATATATA [CACACA_site4075] | 9.885 ± 0.049
20 | TTTCGTCATTTTGTTTTTAATTCTACAATTTAGTTA [XGTACX_negctrl_site286] | 10.03 ± 0.042
21 | CATTTTTCTATATGTGCATGTAAGATAAGAATAATT [TGCATGCA_site107] | 10.4 ± 0.32
22 | TACTTATTATGAAACACACACCAAAACTACAGAATA [CACACA_site6265] | 10.4 ± 0.37
23 | AAAAAAAAAGGTACTACACACTATTATCAATAGAAA [CACACA_site91] | 11.2 ± 0.87

Row | Sequence | gcPBM binding intensity (ln)
24 | CAAAATAAAAAATTCACACACATATAAATATAAATA [CACACA_site7065] | 9.74 ± 0.16
25 | TTATATATTTATAAATGTACATATAATTTTTTTATA [XGTACX_site4696] | 11.1 ± 0.67
26 | CTGATATATAGATGTAGTACATAAAAATGACGAATT [XGTACX_site5612] | 11.5 ± 0.77
27 | ATATTTTTATTTAAATCACATCATTTTGTTTATTTG [CACACA_negctrl_site1056] | 9.71 ± 0.26
28 | CATATAATTATTGAAAGTACATACAAATAAAAAGAT [XGTACX_site6535] | 11.3 ± 0.76
29 | ATTTAATTTATTATGTGTACTTATTTAATTAAATTA [XGTACX_site3171] | 11.6 ± 1.2
30 | TTTTGTGAATTTTAGATTTTTTAATACAAGAATATT [CACACA_negctrl_site606] | 9.685 ± 0.021
31 | ATATTTACCACTGTATGTACATATATAAAATATATC [XGTACX_site6373] | 11.2 ± 0.71
32 | ATATATATATGTATATGTACATATATATACACATAT [XGTACX_site140] | 11.1 ± 0.71
33 | TAAATATATTTATATTGTACATTTATGTTGATACCA [XGTACX_site228] | 10.8 ± 0.51
34 | TGAGCACAAATACAGGTGCATATAAAATATATGACG | 10.02 ± 0.049
35 | AGAGGCCAGCTTTCTCTTCTAAACATGTACAAAAAT [GTGCAC_negctrl_site98] | 11.2 ± 0.48
36 | AAAAAAATAAAATGTTCACACATTTCACAATTACTT [CACACA_site4859] | 9.835 ± 0.049
37 | TTTACAGATACTTGCTCACACATATGTATAAAAATA [CACACA_site4928] | 10.3 ± 0.3
38 | TATAATATATATAGGAGTACGTATGTATATTTATAA [XGTACX_site3521] | 11.3 ± 0.81
39 | ATATATATATAGTGCACACATATAAAATATATATAA [CACACA_site2745] | 10.4 ± 0.52
40 | AAGTAAAAAAATAGCACACACACAAAAACACCCACA [CACACA_site1291] | 10.9 ± 0.71
41 | AATAGTTAAATGTACACACTAACTACATGGAATATA [CACACA_site3262] | 11.4 ± 0.98
42 | TATATATAAAACATATGTACATATATATATATATAT [XGTACX_site419] | 11.4 ± 1
43 | ATATTTTATAATTTTACACACCATATAAAATAATTC [CACACA_site2797] | 10.05 ± 0.049
44 | ACATGAAACTATAAACGTACATACATACATATATAT [XGTACX_site5011] | 11.3 ± 0.67
45 | AGGCTCATTTTTTTTAGTACATCAAAAAAAAAAAAA [TGCATGCA_negctrl_site591] | 11.1 ± 0.89
46 | CTATTTTTTGTATAAACATGCATATAGTAGATATGG [TGCATGCA_site670] | 10.1 ± 0.23

Row | Sequence | gcPBM binding intensity (ln)
47 | TTTAATATTTTTTTTTGTACTTATTTGTAGAAATAT [XGTACX_site3046] | 11.2 ± 0.83
48 | TGTATGTTTATTTGATGTACGGTCATACATATAAAT [XGTACX_site5176] | 10.8 ± 0.5
49 | AAATTCATATGAATTTGTACGGACATAAATATCTTC [XGTACX_site1838] | 11.2 ± 0.71
50 | ATTCATAATATTATAACACACGCTTATTACATAAAG [CACACA_site980] | 10.03 ± 0.064
51 | TAATATTGTATTTATGTACACACATTTTTGGAATAT [CACACA_site8371] | 11.4 ± 0.83
52 | AGTGTATTAATTCTCACACACTAAGAAAAAAAAAAA [CACACA_site6007] | 10.1 ± 0.3
53 | TTTTTTAATAAATGGTGTACATATTTTTTTTATACT [XGTACX_site8584] | 11.8 ± 0.87
54 | CGCATGTATTTTGTGTGTACTAATTATAATCAACTT [XGTACX_site4709] | 11.4 ± 0.83
55 | TTTTACATATACATGTGTACATAACAAAGAATGTTT [XGTACX_site2406] | 11.3 ± 0.84
56 | TTTTTTTTATTAAAAAGTACTAAACAAATTATATAT [XGTACX_site121] | 11.1 ± 0.73
57 | TAACACATATATTGTTGTACATTCAAACTGAAAAAT [XGTACX_site5565] | 11 ± 0.57
58 | TATATACATATGTGATGTACATTTTTTGTAATATAA [XGTACX_site6985] | 11.1 ± 0.5
59 | ATATATATATATATGTGTACATATGTATATATATCT [XGTACX_site2930] | 11.3 ± 0.75
60 | AGATGGAGAAAGTTATGTACACATATATAAATATGT [XGTACX_site6150] | 11.5 ± 0.79
61 | CCCATGTAATGAACATGTACATAATAATTTATAAAT [XGTACX_site8687] | 11.2 ± 0.81
62 | AAACATCATAAATATACACACATATTTATATTTATA [CACACA_site6437] | 9.895 ± 0.064
63 | ATGTCTACAGTTTTTGCACACATATAAATAAAAAAA [CACACA_site3600] | 10.5 ± 0.52
64 | ATTTTTTTTTTTTTTTTTTTTGAGAAGAACTTTTTC [CACACA_negctrl_site1019] | 9.79 ± 0.11
65 | TTTTAAAAAGAAAAAAATAACATACATATATATATA [CACACA_negctrl_site240] | 9.71 ± 0.36
66 | CCATAACTCATATGCACACATAAATATTACATATAT [CACACA_site3821] | 10.2 ± 0.18
67 | ACTCATAAAAATAGATGTACTTTAATAATTTGATTT [XGTACX_site8763] | 11.3 ± 0.84
68 | TCAAACGGTTAAATATGTACATATATATATATATAT [XGTACX_site2339] | 11.1 ± 0.65
69 | AAAAAAAAAAGACACACACACATATAAATATAAATA [CACACA_site6899] | 10 ± 0.2

Row | Sequence | gcPBM binding intensity (ln)
70 | TAAGAGATATTTTATTAAATGTTTTATGAATCATGT [TGCATGCA_negctrl_site264] | 9.46 ± 0.22
71 | AGGAAAAAAAAAATGACACACATATTTGAATTAAAA [CACACA_site1352] | 9.965 ± 0.007
72 | ACCCACTTTTGAGGTGTGCACAATAAATTGGACATT | 10.9 ± 0.61
73 | ATATATATTTAAACTACACACGCATATCTTAGAAAT [CACACA_site8348] | 10.145 ± 0.007
74 | GTACATACATAAAACACACACATATAGATTTATATA [CACACA_site6945] | 10.7 ± 0.24
75 | AGTGTGTGTAATAAAGTGCATTAAAAATGACACGTA | 10.4 ± 0.42
76 | ATATTAAAATGAAAATATAAAAAAAAAAAAAAAAAA [CACACA_negctrl_site1559] | 9.54 ± 0.65
77 | CAATCAAATAGACACACACACACCTAAACATAAAAG [CACACA_site7322] | 10.2 ± 0.25
78 | AGCCATTAATTCTCTACACACCTTTATGTTATTTAG [CACACA_site3635] | 10.1 ± 0.2
79 | TATTAATAAAAGCATTGTACAGTAATAAATAAATAA [XGTACX_site2924] | 10.8 ± 0.48
80 | TATATATATAAACACACACACACCAAAGCGTAGCGC [CACACA_site7903] | 10.1 ± 0.14
81 | TTGTATTCATAACAACGTACATATTTTGTAACTAAA [XGTACX_site4029] | 11.1 ± 0.69
82 | TTTCAAACAAAAAGACGTACACTGAAGTTATCCGTC [XGTACX_site8824] | 11.8 ± 1
83 | AAGGAAATATAATATACACACATAAGTGTACTTCTA [CACACA_site6079] | 11.7 ± 1.1
84 | TGTTTATTTTTAAAAAGTACATATTTAAAAAACTTC [XGTACX_site271] | 11.4 ± 1
85 | TTTTCTAAATAAATAGTGCATTTATTATATATACAT [GTGCAC_site9766] | 9.97 ± 0.13
86 | CAAAACCTTATATGTACACACATATACATCACCCTT [CACACA_site3170] | 11.5 ± 0.92
87 | ATAGAATAAAACTATACACACCTATATTTAAACATA [CACACA_site5106] | 9.9 ± 0.014
88 | ATTTCTCTATCGTAATGTACATAAAAAATGAAAAAA [XGTACX_site1201] | 11.3 ± 0.71
89 | CAAAAGAAGGTAAACACACACACACGCATACAAAAA [CACACA_site7724] | 10.2 ± 0.14
